Measured values as given in patent publication US20260167737A1 (BIGHAT BIOSCIENCES, published 2026).

Experiments:
Assay in all cases: cell-based or functional assay
CDH17 [1] = molecular target: T1, CDH17 (UniProt Q12864 23-787, limits assumed)
T1 sequence (looked up): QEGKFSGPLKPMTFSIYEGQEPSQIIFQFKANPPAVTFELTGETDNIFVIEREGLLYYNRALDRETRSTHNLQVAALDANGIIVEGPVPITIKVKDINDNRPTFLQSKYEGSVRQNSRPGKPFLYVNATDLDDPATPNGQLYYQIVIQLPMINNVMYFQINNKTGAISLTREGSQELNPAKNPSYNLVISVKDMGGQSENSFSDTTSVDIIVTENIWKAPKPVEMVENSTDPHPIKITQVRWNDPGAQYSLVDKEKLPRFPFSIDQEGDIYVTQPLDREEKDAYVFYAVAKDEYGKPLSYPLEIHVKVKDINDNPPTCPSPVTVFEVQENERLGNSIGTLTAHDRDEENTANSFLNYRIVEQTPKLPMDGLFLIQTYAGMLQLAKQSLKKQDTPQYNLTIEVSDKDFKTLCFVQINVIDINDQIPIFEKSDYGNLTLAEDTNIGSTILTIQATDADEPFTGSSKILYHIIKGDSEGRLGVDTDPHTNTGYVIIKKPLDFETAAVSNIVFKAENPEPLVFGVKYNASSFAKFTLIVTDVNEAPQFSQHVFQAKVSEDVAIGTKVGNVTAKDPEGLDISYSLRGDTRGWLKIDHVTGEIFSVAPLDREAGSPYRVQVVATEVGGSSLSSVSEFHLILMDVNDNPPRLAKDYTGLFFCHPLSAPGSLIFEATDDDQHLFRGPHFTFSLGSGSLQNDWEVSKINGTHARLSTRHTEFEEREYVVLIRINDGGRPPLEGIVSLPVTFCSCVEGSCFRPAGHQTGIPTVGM

CDH17 on SNU16 cells = molecular target: T2, CDH17 on SNU16 cells (UniProt Q12864 23-832, limits assumed)
T2 sequence (looked up): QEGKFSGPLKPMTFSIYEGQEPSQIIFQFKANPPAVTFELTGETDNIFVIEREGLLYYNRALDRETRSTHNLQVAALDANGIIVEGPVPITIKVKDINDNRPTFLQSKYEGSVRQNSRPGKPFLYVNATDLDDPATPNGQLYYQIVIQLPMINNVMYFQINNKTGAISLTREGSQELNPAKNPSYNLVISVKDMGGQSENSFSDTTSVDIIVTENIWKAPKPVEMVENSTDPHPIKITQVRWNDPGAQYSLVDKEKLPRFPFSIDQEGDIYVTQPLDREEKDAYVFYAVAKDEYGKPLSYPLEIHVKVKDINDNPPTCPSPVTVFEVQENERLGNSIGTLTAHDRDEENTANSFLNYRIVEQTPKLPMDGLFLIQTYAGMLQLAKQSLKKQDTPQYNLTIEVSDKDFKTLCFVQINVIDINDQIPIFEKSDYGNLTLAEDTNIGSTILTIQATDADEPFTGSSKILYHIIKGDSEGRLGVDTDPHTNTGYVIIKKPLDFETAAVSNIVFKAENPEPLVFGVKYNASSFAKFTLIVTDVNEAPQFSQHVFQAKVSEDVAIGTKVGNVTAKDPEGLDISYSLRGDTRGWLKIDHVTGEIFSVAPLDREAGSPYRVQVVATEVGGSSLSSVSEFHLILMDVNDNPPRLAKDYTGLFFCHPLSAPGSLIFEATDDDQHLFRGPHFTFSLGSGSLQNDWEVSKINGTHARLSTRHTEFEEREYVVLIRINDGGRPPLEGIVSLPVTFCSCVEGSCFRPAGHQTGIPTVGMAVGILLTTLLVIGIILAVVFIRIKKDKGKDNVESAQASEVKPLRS

CDH17 [2] = molecular target: T1, CDH17; remark: listed apart in the source

B1: BHB156-vedotin (Fc fusion)
VHH-Fc chain: QVQLQESGGGLVQPGGSTRLSCVSSRTFSYYDMGWFRQAPGKEREFVALLSWRGNNAEYSDSVMGRFTVSRGNTQNSVNLQMNNLKPEDTGIYYCAVTYGGARSVRSWGQGTQVTVSSGGGGS[here human IgG1 Fc with changes without letters]
modifications: mc-vc-PAB-MMAE (vedotin) on reduced interchain cysteines, average DAR about 4
cytotoxicity IC50, AsPC1 (PDAC) cells, 96 h, CellTiter-Glo (CDH17 [1]): 0.178 nM
cytotoxicity IC50, CAPAN2 (PDAC) cells (ABC <LLOD), 96 h, CellTiter-Glo (CDH17 [1]): > 100 nM
cytotoxicity IC50, HCT15 (CRC) cells (ABC <LLOD), 96 h, CellTiter-Glo (CDH17 [1]): > 100 nM
cytotoxicity IC50, HT115 (CRC) cells (ABC <LLOD), 96 h, CellTiter-Glo (CDH17 [1]): > 100 nM
cytotoxicity IC50, IM95 (gastric) cells, 96 h, CellTiter-Glo (CDH17 [1]): 0.664 nM
cytotoxicity IC50, LoVo (CRC) cells (ABC <LLOD), 96 h, CellTiter-Glo (CDH17 [1]): > 100 nM
cytotoxicity IC50, MKN 45 (gastric) cells (ABC <LLOD), 96 h, CellTiter-Glo (CDH17 [1]): > 100 nM
cytotoxicity IC50, NCI-H508 (CRC) cells, 96 h, CellTiter-Glo (CDH17 [1]): 0.0898 nM
cytotoxicity IC50, OCUM1 (gastric) cells, 96 h, CellTiter-Glo (CDH17 [1]): 0.55 nM
cytotoxicity IC50, SW403 (CRC) cells, 96 h, CellTiter-Glo (CDH17 [1]): 0.0367 nM
cytotoxicity IC50, SW837 (CRC) cells (ABC <LLOD), 96 h, CellTiter-Glo (CDH17 [1]): > 100 nM
cytotoxicity IC50 of the negative control (asterisk: BHB156-vedotin with ≥10-fold molar excess of free unconjugated VHH-Fc), HCT15 (CRC) cells (ABC <LLOD) (CDH17 [1]): > 100 nM
cytotoxicity IC50 of the negative control (asterisk: BHB156-vedotin with ≥10-fold molar excess of free unconjugated VHH-Fc), HT115 (CRC) cells (ABC <LLOD) (CDH17 [1]): > 100 nM
cytotoxicity IC50 of the negative control (asterisk: BHB156-vedotin with ≥10-fold molar excess of free unconjugated VHH-Fc), IM95 (gastric) cells (CDH17 [1]): 43 nM
cytotoxicity IC50 of the negative control (asterisk: BHB156-vedotin with ≥10-fold molar excess of free unconjugated VHH-Fc), MKN 45 (gastric) cells (ABC <LLOD) (CDH17 [1]): > 100 nM
cytotoxicity IC50 of the negative control (asterisk: BHB156-vedotin with ≥10-fold molar excess of free unconjugated VHH-Fc), OCUM1 (gastric) cells (CDH17 [1]): 52 nM
cytotoxicity IC50, SNU16 (gastric) cells, 96 h, CellTiter-Glo (CDH17 on SNU16 cells): 0.0498 nM
cytotoxicity IC50, CXF269 (CRC) cells (ABC <LLOD) (CDH17 [2]): 113 nM
cytotoxicity IC50, CXF280 (CRC) cells (ABC <LLOD) (CDH17 [2]): > 100 nM
cytotoxicity IC50, CXF1103 (CRC) cells (CDH17 [2]): 2 nM
cytotoxicity IC50, GXA3011 (gastric) cells (ABC <LLOD) (CDH17 [2]): > 100 nM
cytotoxicity IC50, GXA3013 (gastric) cells (CDH17 [2]): 0.12 nM
cytotoxicity IC50, GXA3023 (gastric) cells (CDH17 [2]): 5.5 nM
cytotoxicity IC50, GXA3067 (gastric) cells (ABC <LLOD) (CDH17 [2]): > 100 nM
cytotoxicity IC50, GXA3080 (gastric) cells (CDH17 [2]): 0.034 nM
cytotoxicity IC50, GXF251 (gastric) cells (ABC <LLOD) (CDH17 [2]): > 100 nM
cytotoxicity IC50, GXF1172 (gastric) cells (ABC <LLOD) (CDH17 [2]): > 100 nM
cytotoxicity IC50 in the column 'IC50 isotype vedotin*' (asterisk per paragraph 279: BHB156-vedotin with >10-fold molar excess of free unconjugated VHH-Fc), CXF269 (CRC) cells (ABC <LLOD) (CDH17 [2]): 79.8 nM
cytotoxicity IC50 in the column 'IC50 isotype vedotin*' (asterisk per paragraph 279: BHB156-vedotin with >10-fold molar excess of free unconjugated VHH-Fc), CXF280 (CRC) cells (ABC <LLOD) (CDH17 [2]): > 100 nM
cytotoxicity IC50 in the column 'IC50 isotype vedotin*' (asterisk per paragraph 279: BHB156-vedotin with >10-fold molar excess of free unconjugated VHH-Fc), CXF1103 (CRC) cells (CDH17 [2]): 65 nM
cytotoxicity IC50 in the column 'IC50 isotype vedotin*' (asterisk per paragraph 279: BHB156-vedotin with >10-fold molar excess of free unconjugated VHH-Fc), GXA3011 (gastric) cells (ABC <LLOD) (CDH17 [2]): > 100 nM
cytotoxicity IC50 in the column 'IC50 isotype vedotin*' (asterisk per paragraph 279: BHB156-vedotin with >10-fold molar excess of free unconjugated VHH-Fc), GXA3013 (gastric) cells (CDH17 [2]): 22 nM
cytotoxicity IC50 in the column 'IC50 isotype vedotin*' (asterisk per paragraph 279: BHB156-vedotin with >10-fold molar excess of free unconjugated VHH-Fc), GXA3023 (gastric) cells (CDH17 [2]): > 100 nM
cytotoxicity IC50 in the column 'IC50 isotype vedotin*' (asterisk per paragraph 279: BHB156-vedotin with >10-fold molar excess of free unconjugated VHH-Fc), GXA3067 (gastric) cells (ABC <LLOD) (CDH17 [2]): > 100 nM
cytotoxicity IC50 in the column 'IC50 isotype vedotin*' (asterisk per paragraph 279: BHB156-vedotin with >10-fold molar excess of free unconjugated VHH-Fc), GXA3080 (gastric) cells (CDH17 [2]): 3.4 nM
cytotoxicity IC50 in the column 'IC50 isotype vedotin*' (asterisk per paragraph 279: BHB156-vedotin with >10-fold molar excess of free unconjugated VHH-Fc), GXF251 (gastric) cells (ABC <LLOD) (CDH17 [2]): > 100 nM
cytotoxicity IC50 in the column 'IC50 isotype vedotin*' (asterisk per paragraph 279: BHB156-vedotin with >10-fold molar excess of free unconjugated VHH-Fc), GXF1172 (gastric) cells (ABC <LLOD) (CDH17 [2]): > 100 nM
